B1: chr14:75048437:75048538:-|CDS|ENSG00000119684|unk|total|mutant (ssRNA)
RNA: GGGAGUUCUACAGUCCGACGAUCUCAGAAGCGUGUGACUUCCGAUGAGAGGAGCAAUUUCCAGGAAGCAUGUAAUAAUAUUUCCGAUUCCUAUGAGAUGUUUAAUUUGCAGUCAAAAGCUGUGAAAAGAAAAACUACUGCAGACAACAGAGGAUUGAGCAUCA
B2: chr8:41661800:41661941:-|CDS|ENSG00000029534|control|control|control (ssRNA)
RNA: GGGAGUUCUACAGUCCGACGAUCGGUUCGACAGAUAGACUUGUCCAGCGCCGAUGCCGCCCAGGAGCACGAGGAGGUGACUGUAGAGGGGCCCCUGGAGGAUCCCAGUGAGCUGGAGGUCGAUAUUGAUUACUUUAUGAAACACAACAGAGGAUUGAGCAUCA
B3: chr15:77046258:77046342:-|3pUTR|ENSG00000140391|msi1_unk|FALSE|overlapping (ssRNA)
RNA: GGGAGUUCUACAGUCCGACGAUCAAAAAUAUUUACUGUAGUCCAAUAAGAUAGCAGCUGUACAAAAUGACUAAAAUAGAUUGUAGGAUCAUAUGGCGUAUAUCUUGGUUCAUCUUCAAAAUCAGAGACUGAGCUUUGAAACUACAACAGAGGAUUGAGCAUCA
B4: chr19:46720021:46720126:-|3pUTR|ENSG00000090372|unk|total|mutant (ssRNA)
RNA: GGGAGUUCUACAGUCCGACGAUCGCCGCUCCUGGUAUCAGAGCUGCUUUCCAGAGGGCAGCACAGCCAGGGCCGGGUGUCUUCCGGGAUCAGUUUUUCCAAGACUCCAGAAGGUGCCAGGUUCUCCCCUUGAGCUCCUGCUCCCAACAGAGGAUUGAGCAUCA
B5: chr3:127036549:127036650:+|3pUTR|ENSG00000114554|msi1|FALSE|unique (ssRNA)
RNA: GGGAGUUCUACAGUCCGACGAUCGUCUACUGGGACAGCAGUCUCCGAGCUACUCCGUACCUCCCUCUGCCAGGUCGUGGAGUUAGGCCCCAGUCCCUACUUGUCACUGGUUCCCACUGUGCUCCUAACUGUGCAGCACCUGGGCAACAGAGGAUUGAGCAUCA
B6: chr17:744420:744865:-|three_prime_utr|ENSG00000179409|control|control|control (ssRNA)
RNA: GGGAGUUCUACAGUCCGACGAUCAUCAGCAGCUUCUUACCUGUGCGGGAGCGAAAAAGCUGGGCUUCAACAUGGCAGGUCUGUAGGGGUCAGACCCGAGCAGCCUGGACUUUACAGUUAUGUGAAACUGUCCACAAAAAGUCACAACAGAGGAUUGAGCAUCA
B7: chr14:92003418:92006448:-|CDS|ENSG00000100815|control|control|control (ssRNA)
RNA: GGGAGUUCUACAGUCCGACGAUCGGAGAGAAUAUUAAUUCUAGAGAUGGACAUUGGCAAACUAAAAGGAGAAAAUGAAAAAAUAGUGGAAACAUACAGGGGAAAGGAAACAGAAUAUCAAGCGUUACAAGAGACUAACAUGAACAACAGAGGAUUGAGCAUCA
B8: chr20:7981316:7981417:-|3pUTR|ENSG00000125827|unk|total|mutant (ssRNA)
RNA: GGGAGUUCUACAGUCCGACGAUCUAAGUUUUCUAAGCAAUAUUUUUCAAGCCAGAAGUCCUCUAAGUCUUGCCAGUACAAGGCCGUCUUGUGAAGAAAAGUUGAAUACUGUUUUGUUUUCAUCUCAAGGGGUUCCCUGGGUCUCAACAGAGGAUUGAGCAUCA
B9: chr15:50499333:50499363:+|3pUTR|ENSG00000138592|msi1_unk|total|mutant (ssRNA)
RNA: GGGAGUUCUACAGUCCGACGAUCCAGGUACCAUUUAUUUCAAAACAACUUUUUCCGUCUGCUCCAAAGUUAAAAUAAUUAACCCGCUAAGCAUUAUUAUUCGACUGGUCUAAAAACUAUUGUUAUCUUUUUUUUUUCCUUUUCCAACAGAGGAUUGAGCAUCA
B10: chrX:65741840:65741941:+|3pUTR|ENSG00000147065|msi1|FALSE|unique (ssRNA)
RNA: GGGAGUUCUACAGUCCGACGAUCAAAUUGUUUUUGGAGGGGUUUAUGCUCAAUCCAUGUUCUAUUUCAGUGCCAAUAAAAUUUAGGAAGACUUCACAGUGACUCAAUCGUUCUUUGUGGUAUGAGUGGGUAGCUGUAAGAUAUCAACAGAGGAUUGAGCAUCA
B11: ENSG00000198589:be:win_8201|CDS|ENSG00000198589|bound_else_gene|NA|bound_elsewhere_windowed (ssRNA)
RNA: GGGAGUUCUACAGUCCGACGAUCUCAUUCAGGCUUCAAGAGAGGGUCAUUGUGUCAUAUUCUAUGAAAACGGCCUCUUCUGUACAUUCAGUGUGAAUGGAAAACUCCAGGCCACGAUGGAAACAGAUGAUAACAUAAGAGCCACAACAGAGGAUUGAGCAUCA
B12: chr19:35623844:35623945:+|3pUTR|ENSG00000249115|unk|total|mutant (ssRNA)
RNA: GGGAGUUCUACAGUCCGACGAUCUGUGUCAAGAGCAGCGGCGGUGACGCAGGUGCCGAGAUUUGUCAGAGCUCAUGCCGUUGCCGUCUUAAGGCCUGUGCAUUUCACUGCGUGGGUUACUCAAUUUAUAAAGCAAAGCCCUUACAACAGAGGAUUGAGCAUCA
B13: chr1:217137657:217137758:-|5pUTR|ENSG00000196482|msi1|total|mutant (ssRNA)
RNA: GGGAGUUCUACAGUCCGACGAUCCGGGCUCCAGGCCGGGCUCCCUAAACGGGUCAGCAAUUGGAGCGGGAAGGCCGGACAGGCCGGUGGCGUGGGGCGCACAAGCCCGGCAGCGAUAACCGGGGACGUCUGUACUGCUUCCAACAACAGAGGAUUGAGCAUCA
B14: ENSG00000136451:be:win_3201|3pUTR|ENSG00000136451|bound_else_gene|NA|bound_elsewhere_windowed (ssRNA)
RNA: GGGAGUUCUACAGUCCGACGAUCAACAGUUCUAGGGGGUUGAACUACAUAGUAAAAAAAUAAAAUAAAUAGUACUUAGUGUAAAAUAAUUUUAUAAAUGAUCUUUUGUACUUUAGGACAUUAAAUUGUACAACUUUUGUAUAUCAACAGAGGAUUGAGCAUCA
B15: chr1:88684422:88684524:+|5pUTR|ENSG00000065243|unk|total|mutant (ssRNA)
RNA: GGGAGUUCUACAGUCCGACGAUCUCGAUGAACCGGACGGAAUAAGCCGCGCCUCCAGCAGGGGCUGCGCCUCCAUGAAUCCCCCGUUGUUUUUUUUUUUUUCUUUCUCUCCCCUCUCCUCACCCCCACCCCGAGCCCCGUCCCCAACAGAGGAUUGAGCAUCA
B16: chr5:10679541:10679642:-|3pUTR|ENSG00000112977|msi1|FALSE|unique (ssRNA)
RNA: GGGAGUUCUACAGUCCGACGAUCCUUCAAGGCCCUGUCACCACCUAUUUCCUGAUCAGUUGGUAUAAACUGAGGGUGGCUUUUAGAGACCCAGACUUGGUUGGCAGCGCUGCCAUGGAACACCCCAGCAAGCACCUCCCAGCCCAACAGAGGAUUGAGCAUCA
B17: chr7:65954205:65954306:+|CDS_3pUTR|ENSG00000196715|msi1_unk|total|mutant (ssRNA)
RNA: GGGAGUUCUACAGUCCGACGAUCCAUCUGCAUCGUCACGUACGUGCUGAACUUCCUUCUUCUCAUUAUCAACUACAAACGACCCGUUUACUUGAACGAGGCCUGGAAGCGGCAGCUGCAACCCAAGCAGGACUGACGCCCGACCAACAGAGGAUUGAGCAUCA
B18: ENSG00000035403:stop:overlap|stop_codon|ENSG00000035403|stop_codon|NA|stop_codon (ssRNA)
RNA: GGGAGUUCUACAGUCCGACGAUCAAAUUCGAACAGAUGCUGGAUUUACACUGCGCUGGGUUAGAAAGACUCCCUGGUACCAGUAGGCACCUGGCUGAGCCUGGCUGGCACAGAAACCUCUACUAAAAAGAAGGAAAAUGAUCUCAACAGAGGAUUGAGCAUCA
B19: chr1:32196422:32196614:+|3pUTR|ENSG00000084652|msi1|FALSE|unique (ssRNA)
RNA: GGGAGUUCUACAGUCCGACGAUCACAGUUGUUUCUGUGUCCUGUUCUACCCCCACUCCAGUACAUAACUACUAUGUACUGUGUAGAGCCAUUCUAUAUGCUGAAUGUUCUGCUGUUGCAAACUUGCCAGGGUAUUAGCCAGUGCAACAGAGGAUUGAGCAUCA
B20: chr12:4445224:4445570:-|CDS|ENSG00000111241|control|control|control (ssRNA)
RNA: GGGAGUUCUACAGUCCGACGAUCCAACACGCUGCUGGACUCGAGGGGCUGGGGCACCCUGCUGUCCAGGUCUCGCGCCGGGCUAGCUGGAGAGAUUGCCGGGGUGAACUGGGAAAGUGGCUAUUUGGUGGGGAUCAAGCGGCACAACAGAGGAUUGAGCAUCA
B21: chr11:28036422:28036524:-|CDS|ENSG00000121621|unk|FALSE|unique (ssRNA)
RNA: GGGAGUUCUACAGUCCGACGAUCCAGCUCAAUGAUUCUCUUAGCAAAGAACUUCAGCCUAUUGUAUAUACACCAGAAGACUGUAGAAAAGCUUUUCAAAAUCCGUCUACAGUAACCUUAAUGAAACCAUCAUCAUUUACUACACAACAGAGGAUUGAGCAUCA
B22: chr21:31659700:31659757:+|5pUTR|ENSG00000142168|msi1_unk|total|mutant (ssRNA)
RNA: GGGAGUUCUACAGUCCGACGAUCCGAGGCGCGGAGGUCUGGCCUAUAAAGCCGUCGCGGAGACGGGGUGCUGGUUUGCGUCGCCGUCUCCUGCAGCGUCUGGGGUUUCCGUUGCAGUCCUCGGAACCAGGACCUCGGCGUGGCCAACAGAGGAUUGAGCAUCA

The other results are listed elsewhere or left out.

This test deals with MSI1 full-length (mouse, UniProt Q61474 1-362). The test can be described thus: nsRBNS (natural sequence RNA bind-n-seq); RBNS binding buffer (assumed for nsRBNS): 25 mM Tris pH 7.5, 150 mM KCl, 3 mM MgCl2, 0.01% Triton X-100, 500 ug/ml BSA, 20 U/ml SUPERase-In, 4 C; UNK is unkempt and MSI1 is Musashi-1; names of the RNAs are library labels; protein concentration not given here; high values mean tight binding.
Sequence of UniProt Q61474 (Q61474 whole entry): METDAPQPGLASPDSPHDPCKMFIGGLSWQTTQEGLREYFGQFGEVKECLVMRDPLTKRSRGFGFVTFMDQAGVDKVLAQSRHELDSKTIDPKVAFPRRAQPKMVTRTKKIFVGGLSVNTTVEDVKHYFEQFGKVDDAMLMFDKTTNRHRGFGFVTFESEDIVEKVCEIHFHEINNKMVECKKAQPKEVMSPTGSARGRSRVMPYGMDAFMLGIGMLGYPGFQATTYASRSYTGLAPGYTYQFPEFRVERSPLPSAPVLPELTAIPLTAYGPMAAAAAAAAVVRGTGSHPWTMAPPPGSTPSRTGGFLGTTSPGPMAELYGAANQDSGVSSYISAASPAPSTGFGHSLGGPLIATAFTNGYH
In the case of B1, the binding signal was 0.272 enrichment R.

On to B2, for which the binding signal was 0.668 enrichment R.

Turning to B3, the binding signal was found to be 9.31 enrichment R.

As to B4, the binding signal is 0.465 enrichment R.

Take B5: the binding signal is 0.508 enrichment R.

Regarding B6, the binding signal was determined as 0.334 enrichment R.

Take B7: the binding signal worked out at 0.724 enrichment R.

With B8, the binding signal was 0.304 enrichment R.

Turning to B9, the binding signal was 4.71 enrichment R.

B10 came in with a binding signal of 0.575 enrichment R.

With B11, the binding signal was determined as 0.285 enrichment R.

Molecule B12 displayed a binding signal of 0.357 enrichment R.

Take B13: the binding signal is 0.456 enrichment R.

B14 registered a binding signal of 23.1 enrichment R.

In turn, B15 showed a binding signal of 1.19 enrichment R.

B16 gave a binding signal of 0.702 enrichment R.

B17 registered a binding signal of 0.462 enrichment R.

As for B18, the binding signal was 0.927 enrichment R.

Molecule B19 yielded a binding signal of 0.443 enrichment R.

Turning to B20, the binding signal was determined as 0.512 enrichment R.

B21 displayed a binding signal of 0.992 enrichment R.

Turning to B22, the binding signal is 0.312 enrichment R.

For the origin of these results see paper PMC12136788.
